Test results: PubChem BioAssay AID686978 (National Center for Advancing Translational Sciences (NCATS), 2013)
“And” between values parts separate entries of the source, which are not always exact repeats. Identical values can stand only once. The whole screen tested about 420,000 compounds, of which about 64,000 (15%) were called active. Inconclusive means that the source gave no clear call. Such entries were picked first, then a sample of the others. The call rests on the fitted dose curve; in most records, active means well fitted inhibition curve with a large enough effect; inconclusive means small, poorly fitted or top-dose-only effect; inactive means flat fitted curve, though single readings scatter. Where the call is inconclusive, the potency comes from a doubtful curve fit.
On the % scale 0 is the no-effect control and ±100 the full control effect; potency means the concentration at half of the fitted maximal effect; tags describe the fitted curve by direction and shape.

Experiment: qHTS for Inhibitors of human tyrosyl-DNA phosphodiesterase 1 (TDP1): qHTS in cells in absence of CPT; further: nearly all actives have a fitted effect of over 55% in size
Details: DT40 Tdp1-/- hTDP1 cells, no CPT, ATP luminescence, 48 h; activity change, negative = growth inhibition: at 46.2 µM (top of the series) unless noted
Summary of the method: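 DT40 Tdp1-/-;hTDP1 cells, no CPT (DMSO vehicle only), 400 cells/well; compounds pin-transferred; ≥48 hr, 37 °C; CellTiter-Glo 30 min RT dark, luminescence read.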
With `CSc1ncc(CN2CCCC(C(=O)c3cccc(Cl)c3)C2)cn1` (stereo not drawn) the Potency was inconclusive: 29.1 µM [inhibitor, single point]. For `O=c1[nH]c(=O)n(Cc2ccc(F)cc2)c(O)c1/C=N/Nc1ccccc1`, the Potency was “inactive”. With `O=C1NC[C@H](CCCCN2C[C@@H](Cc3ccccc3)N(CCC3CCCCC3)C(=O)C2=O)N(CCC2CCCCC2)C1=O` the Potency was inconclusive: 29.1 µM [inhibitor, single point]. For `Cc1ccc2c(c1N)C(=O)c1ccccc1C2=O`, the Potency was inconclusive: 10.3 µM [inhibitor, partial curve]. For `O=CC(Br)P(=O)(N1CCOCC1)N1CCOCC1` (stereo not drawn), the Potency was “inactive”. For `CS(=O)(=O)c1ccc(C2=C(CNC(=O)c3nccs3)[C@H]3CC[C@@H](C2)N3Cc2ccccc2)cc1`, the Potency was inconclusive: 23.1 µM [inhibitor, single point]. In the case of `COc1ccc(C(CC(=O)Nc2ccccn2)N2Cc3ccccc3C2=O)cc1` (stereo not drawn), the Potency is reported as inconclusive: 20.6 µM [inhibitor, partial curve]. For `O=C(c1ccc2c(c1)OCO2)C1CCCN(Cc2ccccn2)C1` (stereo not drawn), the Potency was “inactive”. For `COc1ccc(-c2cc(-c3ccccc3)[n+](C)c(-c3ccccc3)c2)cc1`, the Potency was active: 0.58 µM. In the case of `COc1cc(-n2c(=S)[nH]c3ccc(C)cc3c2=O)c(Cl)cc1Cl`, the Potency is reported as active: 18.4 µM. In the case of `CCn1c(C)nc2cc(S(=O)(=O)Nc3ccc(C)cc3)ccc21`, the Potency is reported as inconclusive: 25.9 µM [inhibitor, single point]. With `CC1=C(C(=O)OCCN(Cc2ccccc2)c2ccccc2)C(c2cccc([N+](=O)[O-])c2)C(P2(=O)OCC(C)(C)CO2)=C(C)N1` (stereo not drawn) the Potency was inconclusive: 21.1 µM [inhibitor, single point]. For `Cc1cc(OCC(=O)O)c2c3c(c(=O)oc2c1)CCCC3`, the Potency was “inactive”. In the case of `CN(C)c1ccc2c(c1)N=C(c1ccco1)OP2(=S)N1CCOCC1` (stereo not drawn), the Potency is reported as “inactive”. In the case of `CCOC(=O)C1(Cc2ccc(Cl)cc2)CCN(C(C)CCn2cccn2)CC1` (stereo not drawn), the Potency is reported as inconclusive: 20.6 µM [inhibitor, single point]. In the case of `N#CCn1c(CCl)nc2ccccc2c1=O`, the Potency is reported as active: 2.59 µM. With `Cc1ccc(N2C(=O)NC(=O)/C(=C\c3cc(C)n(-c4sc5c(c4C#N)CCCC5)c3C)C2=O)cc1` the Potency was inconclusive: 29.1 µM [inhibitor, single point]. In the case of `O=S(=O)(c1ccc(F)cc1)N1CCCC1c1cccnc1` (stereo not drawn), the Potency is reported as inconclusive: 29.1 µM [inhibitor, partial curve]. In the case of `CC[C@@]1(O)CC(O)c2c(cc3c(c2O)C(=O)c2c(O)ccc(O)c2C3=O)C1C(=O)OC` (stereo partly drawn), the Potency is reported as “inactive”. With `CC(C)COC(=O)n1c(=O)oc2cc(S(=O)(=O)N3CCCCC3)ccc21` the Potency was inconclusive: 35.5 µM [inhibitor, single point]. In the case of `Cn1c(O)c(C=Nc2ccccc2-c2ccccc2)c(=O)n(C)c1=O`, the Potency is reported as “inactive”. With `Clc1ccccc1-c1cncnc1NCCc1cnc[nH]1` the Potency was inconclusive: 20.6 µM [inhibitor, single point]. With `CNC(=O)Nc1ccc(C(O)(C(=O)OC)C(F)(F)F)cc1` (stereo not drawn) the Potency was “inactive”. With `O=C1NC(=O)C(=Cc2ccc(Oc3ccc([N+](=O)[O-])cc3)cc2)C(=O)N1` the Potency was inconclusive: 29.1 µM [inhibitor, single point]. With `CCOC(=O)C1(CCOc2ccccc2)CCN(C(C)CSC)CC1` (stereo not drawn) the Potency was inconclusive: 16.4 µM [inhibitor, single point]. In the case of `COc1ccc(OC)c(CCNCc2c(C(=O)O)c(C)n(Cc3ccc(F)cc3Cl)c2C)c1`, the Potency is reported as inconclusive: 23.1 µM [inhibitor, single point]. With `CN1CC(C(=O)c2ccc(Cl)cc2)C(c2ccc(Cl)cc2Cl)C1` (stereo not drawn) the Potency was inconclusive: 29.1 µM [inhibitor, single point]. With `NS(=O)(=O)c1ccc(CCNC(=O)c2ccc(Cl)c(S(=O)(=O)N3CCCCC3)c2)cc1` the Potency was active: 23.1 µM. In the case of `N#CC1c2ccccc2-n2nncc2CN1S(=O)(=O)c1ccccc1` (stereo not drawn), the Potency is reported as “inactive”. For `C[C@]12CCC3C(CC[C@H]4C[C@H](O)CC[C@]34C)[C@@H]1CC[C@@H]2C(=O)CO` (stereo partly drawn), the Potency was “inactive”. With `Cc1ccc(C(C)C)c(OCC(=O)N2CCN(Cc3nc4cc([N+](=O)[O-])ccc4n3C)CC2)c1` the Potency was “inactive”. With `N#CCCn1cc(C(=O)Nc2ccccc2Br)c(-c2ccc([N+](=O)[O-])cc2)n1` the Potency was inconclusive: 29.1 µM [inhibitor, single point]. For `CCOC(=O)c1c(C)n(CCN2CCN(C)CC2)c2ccc(OC)cc12`, the Potency was inconclusive: 29.1 µM [inhibitor, single point]. With `COc1c(C)cc(C(=O)C2CCCN(Cc3cccc(O)c3)C2)cc1C` (stereo not drawn) the Potency was inconclusive: 9.2 µM [inhibitor, partial curve]. With `NC1(C(=O)O)CCCc2ccc(N(CCCl)CCCl)cc21` (stereo not drawn) the Potency was active: 2.31 µM. With `C1=C(CCNCc2ccccc2)CCCC1` the Potency was “inactive”. With `C[C@]12CCC3C(CCC4=CC(O)CC[C@@]43/C=N/O)C1(O)CCC2C1=CC(=O)OC1` (stereo partly drawn) the Potency was inconclusive: 29.1 µM [inhibitor, single point]. With `CCCCn1nnnc1C(c1ccccc1)N1CCC2(CC1)C(=O)NCN2c1ccccc1` (stereo not drawn) the Potency was inconclusive: 20.6 µM [inhibitor, single point]. For `CCOC(=O)N1CCN(C(=O)Cn2ncc3c4ccccc4n(Cc4ccc(F)cc4)c3c2=O)CC1`, the Potency was active: 1.84 µM. In the case of `CCCCOC(=O)C1=C(N)OC2=C(C(=O)CCC2)[C@]12C(=O)Nc1ccccc12`, the Potency is reported as “inactive”. For `Cc1[nH]c2ccc(OC(F)(F)F)cc2c1CCNCc1cccc([N+](=O)[O-])c1`, the Potency was active: 13 µM. In the case of `CCCC(=O)N(C)C1=Nc2ccc(Cl)cc2C(c2ccccc2)=[N+]([O-])C1`, the Potency is reported as inconclusive: 8.2 µM [inhibitor, partial curve]. With `CC12C=CC(=O)CC1CCC1C2CCC2(C)C(O)C(O)CC12` (stereo not drawn) the Potency was inconclusive: 18.4 µM [inhibitor, partial curve]. With `COC(=O)c1ccc(CN2CCSC2=N)cc1` the Potency was “inactive”. For `CC(Cc1ccccc1)NC=O` (stereo not drawn), the Potency was “inactive”. For `CN(C)CC1CCCCC1OC(=O)c1ccc(Cl)c(Cl)c1` (stereo not drawn), the Potency was inconclusive: 29.1 µM [inhibitor, single point]. In the case of `COc1ccc(-c2cc(=Nc3cccc(C(=O)O)c3)c3cc(C)ccc3o2)cc1`, the Potency is reported as inconclusive: 25.9 µM [inhibitor, single point]. With `CNS(=O)(=O)c1cc(NC(=O)c2cccc3cccnc23)ccc1C` the Potency was active: 20.6 µM. In the case of `CCCCNC(=O)CN1C(=O)CN=C(c2ccccc2)c2ccccc21`, the Potency is reported as inconclusive: 11.6 µM [inhibitor, partial curve]. For `NC1C[C@H]1c1ccccc1` (stereo partly drawn), the Potency was “inactive”. For `C=CCc1ccc(OCCn2nnc3ccccc32)c(OC)c1`, the Potency was active: 8.2 µM. For `C[C@]12CC[C@H](O)C[C@H]1CC[C@@H]1[C@@H]2CC[C@]2(C)[C@@H](C3=CC(=O)OC3)CC[C@]12O`, the Potency was active: 11.6 µM. With `Cc1ccc(-c2cc(C(F)F)n3ncc(C(=O)N4CCc5ccccc5C4)c3n2)cc1` the Potency was active: 25.9 µM. For `Cc1cccc(N2C(=O)NC(=O)/C(=C/c3cc4c(cc3[N+](=O)[O-])OCO4)C2=O)c1`, the Potency was inconclusive: 29.1 µM [inhibitor, single point]. With `O=[N+]([O-])c1c(Cl)c(Cl)c(Cl)c(Cl)c1Cl` the activity change, negative = growth inhibition was inconclusive: -30.3% [inhibitor]. With `O=P(OC1CCCCC1)(OC1CCCCC1)C(O)c1c(Cl)cccc1Cl` (stereo not drawn) the Potency was inconclusive: 29.1 µM [inhibitor, single point]. In the case of `O=C(/C=C/C=C/c1ccccc1)CC1(O)C(=O)Nc2ccccc21` (stereo not drawn), the Potency is reported as inconclusive: 13 µM [inhibitor, partial curve]. In the case of `CC1=C(C(=O)O)N2C(=O)C(NC(=O)CCCC(=O)O)C2SC1` (stereo not drawn), the Potency is reported as “inactive”. In the case of `CC(=O)c1ccc2c(c1)N(CCCN1CCN(CCO)CC1)c1ccccc1S2`, the Potency is reported as inconclusive: 26.6 µM [inhibitor, single point]. In the case of `COC(=O)C1=C(c2ccc(C(C)=O)cc2)C[C@@H]2CC[C@H]1N2C(=O)NC1CCCCC1`, the Potency is reported as inconclusive: 18.4 µM [inhibitor, single point]. In the case of `Cc1ccc2c(c1)c(C1=c3ccccc3=NC1=O)c(O)n2C`, the Potency is reported as active: 2.06 µM. For `CCC(C)N1CCN(C(=O)Cc2ccccc2)CC1` (stereo not drawn), the Potency was “inactive”. In the case of `CNCC(C)c1ccccc1` (stereo not drawn), the Potency is reported as “inactive”. For `COc1cccc(CSc2nc(-c3ccccc3OC)nc3c2Cc2c(CO)cnc(C)c2O3)c1`, the Potency was active: 3.66 µM. In the case of `CCC(=NCCCN1CCOCC1)c1c(O)n(-c2ccccc2C)c(=O)[nH]c1=O`, the Potency is reported as “inactive”. With `O=C(c1cc(C(=O)NCc2ccc(Cl)cc2)c(=O)n(Cc2ccc(Cl)cc2)c1)c1cc(F)ccc1O` the Potency was inconclusive: 18.4 µM [inhibitor, single point]. For `CC12CCC3c4ccc(OP(=O)(N5CC5)N5CC5)cc4CCC3C1CCC2=O` (stereo not drawn), the Potency was active: 13 µM. With `Cc1ccc(NC(=O)COc2ccc(-c3nn(C)c(=O)c4ccccc34)cc2)c(C)c1` the Potency was active: 13 µM. In the case of `Cc1ccc(O)c([C@H](CCN(C(C)C)C(C)C)c2ccccc2)c1`, the Potency is reported as inconclusive: 13.3 µM [inhibitor, partial curve, poor fit] and inconclusive: 23.1 µM [inhibitor, single point] and inconclusive: 25.9 µM [inhibitor, single point]. For `CN1CCCC1c1ccc(=O)[nH]c1` (stereo not drawn), the Potency was “inactive”. With `COc1cccc(CCNCc2cccc(C(F)(F)F)c2)c1` the Potency was inconclusive: 29.1 µM [inhibitor, single point]. For `CCOC(=O)C1C(=O)NC2(C)CC1c1cc(OC)ccc1O2` (stereo not drawn), the Potency was “inactive”. For `O=C(NN=Cc1ccc(O)c(O)c1)c1ccccc1`, the Potency was active: 23.1 µM.
